In PubChem BioAssay AID493208 (National Center for Advancing Translational Sciences (NCATS), 2011):
About 340 (0.77%) of roughly 44,000 compounds were called active. Another 5% or so got no clear call; they are omitted. The call rests on the fitted dose curve; in most records, active means well fitted inhibition curve with a large enough effect; inconclusive means small, poorly fitted or top-dose-only effect; inactive means flat fitted curve, though single readings scatter. Some of the results follow.

Assay: Acumen qHTS Assay for Inhibitors of the mTORC1 Signaling Pathway in MEF (Tsc2-/-, p53-/-) Cells: Sytravon; further: nearly all actives have a fitted effect of over 50% in size;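 on activity change, negative = inhibition: plate controls were DMSO for no effect and rapamycin for full effect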
Details: phospho-rpS6 immunofluorescence/PI, 24 h; series mostly up to 38.3 µM; activity change, negative = inhibition: at the top concentration
Outline: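 Plate MEFs (Tsc2-/-, p53-/-, empty vector) in DMEM/10% FBS; after 24 h add compound, incubate 24 h at 37 degree Celsius; fix in PFA/TX-100, block, stain phospho-rpS6 and 10 uM PI; scan at 488 nm; report % positive cells.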
Potency means the concentration at half of the fitted maximal effect.

Row | SMILES | activity change, negative = inhibition | Potency
1 | O=C(Nc1ccc(F)cc1)Nc1csc2c1CCCC2 | inactive: -0.644% | –
2 | CCOc1ccc(CCn2c3c(c(=O)[nH]c2=O)C(NC(=O)c2cccc(F)c2)(C(F)(F)F)C(=O)N3)cc1OCC (stereo unspecified) | inactive: 1.35% | –
3 | Cc1c(CCNC(=O)c2c(F)cccc2F)sc2nc(-c3ccc(F)cc3)nn12 | inactive: -3.08% | –
4 | O=C(Cc1ccc(-c2ccccc2)cc1)NCCS(=O)(=O)N1CCN(c2ccc(F)cc2)CC1 | inactive: -12.8% | –
5 | Cn1ncc2c(N3CCN(c4ccc(F)cc4)CC3)ncnc21 | inactive: 7.37% | –
6 | COc1cc(-c2nc3sccn3c2Nc2c(C)cccc2C)ccc1O | inactive: 3.13% | –
7 | O=C1Cc2cc(S(=O)(=O)N3CCN(c4cccc(Cl)c4)CC3)ccc2N1 | inactive: 1.35% | –
8 | CC(=O)N1CCCc2ccc(NS(=O)(=O)c3cccc(Cl)c3)cc21 | inactive: 0% | –
9 | CCn1c(C(=O)NCCc2ccc(S(N)(=O)=O)cc2)cc2sc(Cl)cc21 | inactive: -2.7% | –
10 | CC(=O)N1CCCC1c1nc2ccccc2n1Cc1ccccc1Cl (stereo unspecified) | inactive: -6.22% | –
11 | Cc1cc(Nc2ccc(Br)cc2)nc(C)n1 | inactive: -7.36% | –
12 | Cc1cccc(C)c1-n1ncc(C(=O)NCCCN2CCC(C)CC2)c1C1CCN(C(=O)OC(C)(C)C)CC1 | inactive: -3.5% | –
13 | CCC1CN(C(=O)N2CCC(C(=O)NCCc3ccc(OC)cc3OC)CC2)c2cc(C)ccc2O1 (stereo unspecified) | inactive: -19.3% | –
14 | Cc1cccc(OCc2nc(CC(=O)Nc3ccc(Cl)cc3)cs2)c1 | inactive: 2.09% | –
15 | COc1cccc(CSc2nc3ccncc3n2CC(=O)Nc2ccc(OC)c(OC)c2OC)c1 | inactive: -3.49% | –
16 | CCOC(=O)c1cnc2c(ccc3ccccc32)c1Nc1ccc(C(C)=O)cc1 | inactive: -20.4% | –
17 | COc1ccccc1CNC(=O)Cc1csc2nc(-c3ccc(F)cc3)cn12 | inactive: -15.3% | –
18 | O=S(=O)(c1ccc(Cl)cc1)c1nc(-c2cccs2)oc1N1CCCCC1 | inactive: 6.79% | –
19 | CCc1cc2c(cc3c(=O)n(CC(=O)NC(C)c4ccccc4)ncn32)s1 (stereo unspecified) | inactive: -0.405% | –
20 | COc1cccc(NC(=O)CCN2C(=O)c3ccccc3Sc3ncccc32)c1 | inactive: -11.4% | –
21 | Cc1cc(C)nc(-n2nc(C)c3c2N(Cc2ccccc2F)C(=O)CC3c2ccc(Cl)cc2)n1 (stereo unspecified) | inactive: -9.39% | –
22 | CCOC(=O)c1sc2ccccc2c1S(=O)(=O)NCc1ccccc1OC | inactive: 1.34% | –
23 | CCc1ccccc1NC(=O)C1CCN(S(=O)(=O)c2cn(C)cn2)CC1 | inactive: 1.37% | –
24 | Cc1cccc(C(=O)Nc2cc3c(cc2C)n(C)c(=O)n3C)c1 | inactive: 22.3% | –

Row | SMILES | activity change, negative = inhibition | Potency
25 | CCC(=O)N1CCc2cc(Br)cc(S(=O)(=O)NCCc3cccc(C)c3)c21 | inactive: -1.47% | –
26 | O=C(Nc1sc2c(c1C(=O)NCc1ccco1)CCCC2)c1cc(=O)c2cc(Cl)ccc2o1 | inactive: -2.89% | –
27 | Cc1cc(C)c2nc(C)cc(Nc3cccc(C(=O)O)c3)c2c1 | inactive: -0.595% | –
28 | CCOc1cc(C(=O)Nc2cc3c(cc2N2CCCC2)n(C)c(=O)c(=O)n3C)cc(OCC)c1OCC | inactive: 2.85% | –
29 | CCc1ccc(S(=O)(=O)Nc2cccc(-c3ccc(N4CCCCC4)nn3)c2)s1 | inactive: -0.234% | –
30 | O=C1C(c2ccc(F)cc2)N(CCc2ccc(Cl)cc2)C(=O)CN1C1CCCCC1 (stereo unspecified) | inactive: 10.4% | –
31 | COc1ccccc1NC(=O)Cn1c(C)cc(C)c(C#N)c1=O | inactive: -7.95% | –
32 | O=C(CCCCn1c(=O)c2ccccc2n(Cc2cccc(F)c2)c1=O)NCCc1ccccc1 | inactive: -4.97% | –
33 | Cc1ccc(C)c(NC(=O)CN2C(=O)CCc3cc(S(=O)(=O)N4CCCCC4)ccc32)c1 | inactive: 18.2% | –
34 | CC(=O)N1CCC(N(Cc2ccc(C)o2)C(=O)Nc2cccc(C(F)(F)F)c2)CC1 | inactive: 1.88% | –
35 | Cc1ccc2c(c1)-c1nc(-c3ccc4c(c3)NC(=O)CO4)cc(-c3ccccc3)c1CO2 | inactive: 2.31% | –
36 | COc1ccc(NC(=O)Nc2cc(-c3cn4cccnc4n3)ccc2C)cc1 | inactive: 2.43% | –
37 | O=C(NC1CCN(Cc2ccccc2)CC1)c1ccc(Cn2c(=O)c3ccccc3n(Cc3ccc(Cl)cc3)c2=O)cc1 | inactive: -3% | –
38 | CC(=O)N1CCc2c(sc3c2c(=O)n(-c2ccccc2)c(=O)n3CC(=O)c2ccccc2)C1 | inactive: -3.7% | –
39 | CC(=O)N1CCc2cc(S(=O)(=O)NC(Cc3ccccc3)C(=O)NCc3ccccc3)ccc21 (stereo unspecified) | inactive: -0.495% | –
40 | Cc1ccc(Cn2c(=O)n(Cc3ccccc3)c(=O)c3oc4ccccc4c32)cc1 | inactive: 5.68% | –
41 | CC(=O)Nc1ccc(NC(=O)c2ccc3c(c2)N(Cc2cccc(Cl)c2)C(=O)c2ccccc2S3=O)cc1 (stereo unspecified) | inactive: 1.7% | –
42 | COCc1nc2ccccc2n1Cc1ccc(C(C)(C)C)cc1 | inactive: -17.1% | –
43 | COc1ccc2[nH]c3c(c2c1)CCN(C(=O)CCC1CCCC1)C3c1ccc(F)cc1 (stereo unspecified) | inactive: -13.4% | –
44 | O=C(CC1N=C2c3ccccc3N=C(SCc3ccc(F)cc3)N2C1=O)NCCc1ccccc1 (stereo unspecified) | inactive: -2.67% | –
45 | Cc1cccc(Cn2c(-c3ccccc3)nc3ccccc32)c1 | inactive: -1.77% | –
46 | O=C(CSc1nccn1-c1ccc(F)cc1)Nc1nc2ccccc2s1 | inactive: -0.534% | –
47 | Cc1ccc(-c2cnc(C3CC3)o2)cc1S(=O)(=O)Nc1cccc(C)c1C | inactive: 0% | –
48 | CC(C)(C)OC(=O)N1CCC(c2c(C(=O)N3CCN(c4ccccn4)CC3)cnn2-c2ccc(F)cc2F)CC1 | inactive: 6.88% | –

Row | SMILES | activity change, negative = inhibition | Potency
49 | CCN1CCN(c2csc3ccc(Br)cc3c2=O)CC1 | inactive: 0.127% | –
50 | COc1ccc(NC(=O)C2CCCN(S(=O)(=O)c3c(C)[nH]c(=O)[nH]c3=O)C2)cc1OC (stereo unspecified) | inactive: -15.4% | –
51 | CCn1c(=O)c2cc(C(=O)NCc3cc(OC)ccc3OC)sc2c2ccccc21 | inactive: -4.3% | –
52 | Cc1ccc(NC(=O)C2CCCN(c3ncnc4c3nc3n4CCCCC3)C2)c(Br)c1 (stereo unspecified) | inactive: 1.02% | –
53 | CC(C)(C)c1ccc(C(=O)NCC(=O)OCc2cc(=O)n3nc(C4CC4)sc3n2)cc1 | inactive: 1.02% | –
54 | COc1ccc(NC(=O)c2oc3ccccc3c2NC(=O)c2cc(=O)c3cc(Cl)ccc3o2)cc1 | inactive: -3.12% | –
55 | COc1ccc(Cl)cc1NCc1nnc2n1CCCCC2 | inactive: 0% | –
56 | COc1ccc(CC(C)NS(=O)(=O)c2ccc3c(c2)CCN3S(C)(=O)=O)cc1OC (stereo unspecified) | inactive: -1.48% | –
57 | COC(=O)c1c(NC(=O)c2ccc(OC)cc2OC)sc2c1CCCCC2 | inactive: -1.23% | –
58 | CCOc1ccc2nc(NC(=O)c3nc(SCc4ccccc4F)ncc3Cl)sc2c1 | inactive: -0.204% | –
59 | Cc1cc(C)cc(-n2c(SCC(=O)Nc3ccccc3)nc3c(oc4ccccc43)c2=O)c1 | inactive: -7.2% | –
60 | Cc1ccc(-n2nc3c(=O)n(C(C)C(=O)NCc4ccc(OC(C)C)cc4)nc(C)c3c2C)cc1 (stereo unspecified) | inactive: -12.4% | –
61 | CCCCn1c(=O)n(CC2CCC(C(=O)NCCCOC)CC2)c(=O)c2sccc21 (stereo unspecified) | inactive: -2.47% | –
62 | COc1cc(OC)cc(-c2nc3nc(C)c(CCC(=O)Nc4cc(C)cc(C)c4)c(C)n3n2)c1 | inactive: -1.54% | –
63 | CC(=O)c1ccc(NC(=O)CSC2=Nc3ccccc3N=C(c3ccc(F)cc3)C2)cc1 | inactive: 3.84% | –
64 | CC(C)Cn1cc(NC(=O)N2CCN(c3ccc(F)cc3)CC2)c2ccccc2c1=O | inactive: 6.08% | –
65 | CCC(Cc1ccccc1)NC(=O)Cn1nc(C)n2c(cc3occc32)c1=O (stereo unspecified) | inactive: -3.04% | –
66 | CC(=O)c1cccc(NC(=O)c2sc(-n3nc(C)c(Cc4ccccc4)c3C)nc2C)c1 | inactive: -0.889% | –
67 | CCCS(=O)(=O)N1CC(=O)N(c2cccc(Cl)c2)C(C)(C(=O)NC2CCCCC2)C1 (stereo unspecified) | inactive: 1.87% | –
68 | Cc1cc(=O)[nH]c2nnc(SCc3ccc(Cl)cc3Cl)n12 | inactive: 2.7% | –
69 | Cc1ccc2c(CNC3CCCCC3)c(C(=O)O)n(Cc3ccc(F)cc3)c2c1 | inactive: -0.365% | –
70 | COc1cccc(-c2cc(C(=O)NCCc3ccc(OC)c(OC)c3)no2)c1 | inactive: -9.56% | –
71 | O=C(Cn1c(SCc2ccc(F)cc2)nc2cccnc21)Nc1ccccc1F | inactive: 0.495% | –
72 | Cc1ccc2nc(COc3cccc(NC(=O)Nc4ccc(C)c(Cl)c4)c3)cc(=O)n2c1 | inactive: 2.95% | –

Row | SMILES | activity change, negative = inhibition | Potency
73 | COCCNC(=O)c1ccc2c(c1)N(Cc1cc(C)ccc1C)C(=O)c1ccccc1S2=O (stereo unspecified) | inactive: -13.1% | –
74 | COc1cccc2cc(-c3nc(-c4ccccc4F)no3)c(=O)oc12 | inactive: 1.34% | –
75 | CCOc1ccccc1CNC(=O)c1cc2c(=O)n(Cc3cccnc3)ccc2nc1C | inactive: 0% | –
76 | O=C(Nc1ccc(F)c(Cl)c1)c1ccc2c(Cl)c3c(nc2c1)CCCC3 | inactive: -0.0484% | –
77 | Cc1ccc(-n2c(SCc3ccccc3F)nc3[nH]ncc3c2=O)cc1Cl | inactive: -7.84% | –
78 | CCc1cccc(NC(=O)Cn2c(C(=O)OC)cc3sc(Cl)cc32)c1 | inactive: -13% | –
79 | O=C(NCc1ccccc1)C1CCN(S(=O)(=O)Cc2ccccc2)CC1 | inactive: 3.59% | –
80 | CCN(CC)CCNC(=O)C1CCN(C(=O)c2cnn(-c3ccccc3)c2-n2cccc2)CC1 | inactive: -3.39% | –
81 | Cc1ccc(NC(=O)CSc2nc(=O)cc(N)n2-c2ccccc2)cc1 | inactive: 6.36% | –
82 | CCOC(=O)N1CCc2c(sc3c2C(=O)NC(c2ccc(N(C)C)cc2)N3)C1 (stereo unspecified) | inactive: -0.346% | –
83 | Cc1ccc2nc(NC(=O)CSc3[nH]c(=O)ncc3C)sc2c1 | inactive: -7.45% | –
84 | CCCCOc1ccc(C2c3c(oc4ccc(C)cc4c3=O)C(=O)N2CCCN(C)C)cc1OCC (stereo unspecified) | inactive: -7.97% | –
85 | CC(=O)NCCNC(=O)CCCn1c(=O)[nH]c2ccsc2c1=O | inactive: -2.27% | –
86 | CCN(CC)S(=O)(=O)c1cccc(C(=O)Nc2ccccc2C(=O)Nc2ccc(Cl)cc2)c1 | inactive: 0.214% | –
87 | Cc1ccc(C)c(NS(=O)(=O)c2cc3c(cc2C)n(C)c(=O)c(=O)n3C)c1 | inactive: -1.76% | –
88 | Cc1ccc(-n2c(/C=C/c3c(C)n(C)c4ccccc34)nc3ccccc3c2=O)cc1 | inactive: 4.39% | –
89 | CCOC(=O)c1c(NC(=O)Cc2coc3cc(C)cc(C)c23)sc2c1CCC2 | inactive: -0.655% | –
90 | COCCN(CCOC)S(=O)(=O)c1ccc(C(=O)Nc2sc3c(c2C(=O)OC)CCN(C)C3)cc1 | inactive: -11.7% | –
91 | CC(=O)c1ccc(NC(=O)c2cc(C)nn2-c2ccccc2)cc1 | inactive: -0.015% | –
92 | CCCCN(CCCNC(=O)c1cc(Nc2cccc(SC)c2)nc2ccccc12)Cc1ccccc1 | – | active: 16.5 µM
93 | CCOc1cccc(C(=O)Nc2ccc(-c3nc4ncccc4o3)cc2C)c1 | inactive: 7.93% | –
94 | Cc1ccc(NC(=O)c2cc(S(=O)(=O)N3CCC4(CC3)OCCO4)ccc2F)cc1Cl | inactive: -0.201% | –
95 | COC(=O)c1c(NC(C)=O)c2c3c(sc2n1Cc1cc(C)ccc1C)CCCC3 | inactive: -3.99% | –
96 | CCOC(=O)c1ccccc1NC(=O)c1sc2nc3n(c(=O)c2c1C)CCCCC3 | inactive: -6.9% | –
